{"source": "the supplement of paper PMC12889115", "note": "The other results are listed elsewhere or left out. Cut-off read from the data, not from the text of the source: active = 25% or less and inactive = the rest. Single values are uncertain, as repeats are few or missing.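 Note: compounds tested were the hits of an earlier 50 µM broth growth screen of a drug-like diversity library run with polymyxin B.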", "data": [{"test_system": "Salmonella enterica serovar Typhimurium SL1344", "assay": "intramacrophage bacterial GFP load (SAFIRE), percent of DMSO control (% of DMSO); higher = more intracellular bacteria (less inhibition)", "conditions": "25 µM; system: infected RAW 264.7 macrophages", "experimental": "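Secondary screen of the 553 primary hits at 25 µM. (i) S. Typhimurium SL1344 grown in Mueller-Hinton broth with 0.5 µg/mL polymyxin B, OD600 read after 18 h. (ii) SAFIRE assay: RAW 264.7 macrophages infected with S. Typhimurium sifB::gfp (MOI 30); compound added 2 h post-infection; cells fixed at 18 h; GFP-positive pixel fraction per macrophage imaged by confocal microscopy and expressed as % of DMSO control.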", "values": [{"smiles": "O=S(=O)(c1ccccc1C(F)(F)F)N1CCC(CO)(Cc2ccccc2Cl)CC1", "intramacrophage bacterial GFP load": "inactive: 66.6"}, {"smiles": "c1ccc(-c2ccc(-c3n[nH]cc3CN3CCN(c4ncccn4)CC3)cc2)cc1", "intramacrophage bacterial GFP load": "active: 17.2"}, {"smiles": "Cc1oc(-c2cccs2)nc1CN1CCCCC1c1nccs1", "note": "(stereo unspecified)", "intramacrophage bacterial GFP load": "inactive: 93.2"}, {"smiles": "Cc1ccccc1-n1ncc2c1CC(C)(C)CC2NC(=O)CC(F)(F)F", "note": "(stereo unspecified)", "intramacrophage bacterial GFP load": "inactive: 121"}, {"smiles": "CCOC(=O)C1(Cc2ccccc2C)CCCN(C(=O)c2sccc2C)C1", "note": "(stereo unspecified)", "intramacrophage bacterial GFP load": "inactive: 111"}, {"smiles": "COc1cccc(CNC(=O)C2(N3C[C@@H](C)O[C@@H](C)C3)Cc3ccccc3C2)c1", "intramacrophage bacterial GFP load": "active: 18.1"}, {"smiles": "O=C(NC1(c2ccccc2)CC1)c1cc(COc2ccc(F)c(F)c2)on1", "intramacrophage bacterial GFP load": "inactive: 209"}, {"smiles": "CN(CCc1ccccc1)C1(C(=O)N[C@H]2CC[C@H](O)CC2)Cc2ccccc2C1", "intramacrophage bacterial GFP load": "inactive: 31.5"}, {"smiles": "O=C(NCC1CCCN(S(=O)(=O)/C=C/c2ccccc2)C1)c1ccco1", "note": "(stereo unspecified)", "intramacrophage bacterial GFP load": "inactive: 90.1"}, {"smiles": "C=CC[C@@H]1CC=C[C@@H](c2ccccc2)N1C(=O)CCC1(Cc2ccc(SC)cc2)CCC(=O)N1", "note": "(stereo partly specified)", "intramacrophage bacterial GFP load": "inactive: 100"}, {"smiles": "CCOc1ccc2nc(N3CCC(NC(Cn4cccn4)c4ccccc4)CC3)nc(C)c2c1", "note": "(stereo unspecified)", "intramacrophage bacterial GFP load": "active: 22.8"}, {"smiles": "Fc1cccc(C2CCN(CC3CC3)c3ccccc3S2)c1", "note": "(stereo unspecified)", "intramacrophage bacterial GFP load": "inactive: 105"}, {"smiles": "COC(c1ccc2c(c1)CN(C(=O)C1Cc3ccccc3O1)CCO2)C1CCCCC1", "note": "(stereo unspecified)", "intramacrophage bacterial GFP load": "inactive: 42.9"}, {"smiles": "O=C(c1ccc(NC2CC2)nc1)N1CCCC(c2ccccc2)CC1", "note": "(stereo unspecified)", "intramacrophage bacterial GFP load": "inactive: 122"}, {"smiles": "O=C(c1cccs1)N1CCc2[nH]nc(-c3cccc(F)c3)c2C1", "intramacrophage bacterial GFP load": "inactive: 143"}, {"smiles": "COc1cc(CN2CCOc3ccc(C(O)CCc4ccccc4)cc3C2)cc(OC)c1", "note": "(stereo unspecified)", "intramacrophage bacterial GFP load": "inactive: 32.4"}, {"smiles": "COc1cc(CN2Cc3cc(C)ccc3OC(c3ccsc3)C2)ccc1O", "note": "(stereo unspecified)", "intramacrophage bacterial GFP load": "active: 0.0123"}, {"smiles": "COCCCN1C(=O)CC(CC(=O)N2CCN(c3ccccc3C)CC2)(c2ccccc2OC)C1=O", "note": "(stereo unspecified)", "intramacrophage bacterial GFP load": "inactive: 57"}, {"smiles": "COc1ccc2c(C)nc(N3CCCC(C(=O)N4CCC(C(O)c5ccccc5)CC4)C3)nc2c1", "note": "(stereo unspecified)", "intramacrophage bacterial GFP load": "inactive: 93.8"}, {"smiles": "CN(Cc1ccccc1C(F)(F)F)C(=O)CCC1(Cc2cccc3ccccc23)CCC(=O)N1", "note": "(stereo unspecified)", "intramacrophage bacterial GFP load": "inactive: 125"}, {"smiles": "Cc1cc(C)n(CC(=O)N(Cc2ccncc2)Cc2cccc(OCCc3ccc(F)cc3)c2)n1", "intramacrophage bacterial GFP load": "inactive: 189"}, {"smiles": "CCOC(=O)C1(CCCc2ccccc2)CCN(C(=O)c2ccc(OC)o2)CC1", "intramacrophage bacterial GFP load": "inactive: 35.7"}, {"smiles": "O=C(CN1CC(c2ccccc2)CC1=O)N(Cc1ccncc1)Cc1cccc(OCCc2ccc(F)cc2)c1", "note": "(stereo unspecified)", "intramacrophage bacterial GFP load": "active: 21.5"}, {"smiles": "Cc1ccn(CCC(=O)N2CCC3(CC2)CC3C(=O)NCCC(c2ccccc2)c2ccccc2)n1", "note": "(stereo unspecified)", "intramacrophage bacterial GFP load": "inactive: 103"}, {"smiles": "CO[C@H]1[C@H](NC(=O)c2ccccn2)c2ccccc2C12CCN(C(=O)C#Cc1ccccc1)CC2", "intramacrophage bacterial GFP load": "inactive: 133"}, {"smiles": "CCOC(=O)C1(CCc2ccccc2)CCCN(C(=O)c2ccc(COC)s2)C1", "note": "(stereo unspecified)", "intramacrophage bacterial GFP load": "inactive: 33.7"}]}]}
